# Experimental data from PubChem BioAssay (NCATS).
# The list shows a part of the results. Shown are side measurements of this screen, not its main read-out; they come without a call. For some of these results: The list favours compounds with an active or inconclusive main result. Words in brackets tell the shape of the fitted curve; partial curves, single points and poor fits give uncertain potencies.
# Tests used:
# [1] = biological target: Nicotinamide N-methyltransferase (Homo sapiens) (UniProt P40261); experiment: Confirmatory Screen for Target Class Profiling of Small Molecule Inhibitors of Methyltransferases (AID 1745852); details: MTase-Glo luminescence, SAH detection, recombinant enzyme; measured here: NNMT inhibition potency;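 further: inhibitor potency for blocking SAH production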
# [2] = qHTS drug screen for cell cycle checkpoint inhibitors in PARPi-resistant BRCA-mutant ovarian cancer cell lines. (AID 1963452); details: PEO1/OlaR viability, CellTiter-Glo luminescence, 96 h
# Outline: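 PEO1, PEO4 and PEO1/OlaR ovarian cancer cells, 600 per well, exposed 96 h at 37C to a dilution series. Viability read by CellTiter-Glo luminescence, normalized to DMSO and empty wells; activity summarized as Z-AUC.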
# [3] = qHTS for identification of novel therapeutic agents for treatment of microphthalmiaassociated transcription factor (MiT) renal cell carcinoma (RCC) (AID 1963991); details: CellTiter-Glo, 48 h; for z-score: stronger effect = lower value
# Outline: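 Viability of three TFE3-fusion renal carcinoma lines measured by CellTiter-Glo after 48 h treatment with each of 1912 compounds at 11 concentrations. Responses scaled between DMSO (100%) and empty wells (0%) before curve fitting.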
# [4] = biological target: Phenylethanolamine N-methyltransferase (Homo sapiens) (UniProt P11086); experiment: Confirmatory Screen for Target Class Profiling of Small Molecule Inhibitors of Methyltransferases (AID 1745852); details: MTase-Glo luminescence, SAH detection, recombinant enzyme; measured here: PNMT inhibition potency;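 further: inhibitor potency for blocking SAH production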
# [5] = measured here: PEO1 parental viability
# [6] = TFE3-RCC viability, measured here: UOK124 cell viability
# [7] = TFE3-RCC viability, measured here: UOK145 cell viability
# [8] = TFE3-RCC UOK109 viability, measured here: UOK109 Z-AUC
# [9] = TFE3-RCC viability, measured here: UOK124 Z-AUC
# [10] = TFE3-RCC viability, measured here: UOK145 Z-AUC
# Tags describe the fitted curve by direction and shape.
# Sequence of UniProt P11086 (P11086 whole entry, looked up): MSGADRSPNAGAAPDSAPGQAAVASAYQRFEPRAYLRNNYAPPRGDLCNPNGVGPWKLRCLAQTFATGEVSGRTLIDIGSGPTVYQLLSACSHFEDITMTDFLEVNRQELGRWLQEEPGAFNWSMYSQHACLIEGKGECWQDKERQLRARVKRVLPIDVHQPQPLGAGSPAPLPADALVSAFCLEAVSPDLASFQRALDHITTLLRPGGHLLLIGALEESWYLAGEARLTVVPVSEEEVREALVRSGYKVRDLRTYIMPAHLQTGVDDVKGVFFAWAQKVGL
# Sequence of UniProt P40261 (P40261 whole entry, looked up): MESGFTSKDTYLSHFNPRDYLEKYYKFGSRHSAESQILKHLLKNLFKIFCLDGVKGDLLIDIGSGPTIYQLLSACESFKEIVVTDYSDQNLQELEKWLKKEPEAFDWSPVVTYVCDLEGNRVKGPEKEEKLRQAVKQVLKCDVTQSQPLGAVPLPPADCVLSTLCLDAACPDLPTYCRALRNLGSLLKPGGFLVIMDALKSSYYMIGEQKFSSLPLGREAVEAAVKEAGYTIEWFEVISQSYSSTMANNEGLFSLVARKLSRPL
smiles,measurement,setting,value
Cc1c(OCc2cccc(-c3ccc(C(=O)O)cc3)c2)cc2c(c1C)C(=O)C(C1CCCC1)C2 (stereo not drawn),IC50,[1],"27.1 µM [falling, partial curve]"
Cc1cc2c(cc3n2CC(C)(C(=O)NC2CCCCCCC2)N(Cc2ccco2)C3=O)o1 (stereo not drawn),IC50,[1],"21.5 µM [falling, partial curve]"
Cc1ccc(C)c(-c2cc(C(F)(F)F)nn2-c2ccc(S(N)(=O)=O)cc2)c1,IC50,[1],"21.5 µM [falling, partial curve]"
CC1(C(=O)NC2CCCC2)Cn2c(c(-n3cccc3)c3ccccc32)C(=O)N1Cc1ccccn1 (stereo not drawn),IC50,[1],"19.2 µM [falling, partial curve]"
CC(C)Cn1c(=O)c2ccccc2n2c(CCC(=O)Nc3ccc(F)c(F)c3)nnc12,IC50,[1],"15.2 µM [falling, partial curve]"
Cn1c(=O)c2ccnn2c2ccc(C(=O)NCC3CCN(Cc4ccccc4F)CC3)cc21,IC50,[1],"24.1 µM [falling, partial curve]"
Cc1cccc(N2CCN(C(=O)CCc3nnc4n(CCC(C)C)c(=O)c5ccccc5n34)CC2)c1C,IC50,[1],"7.64 µM [falling, full curve]"
COc1ccc(CN2C(=O)c3cc4ccccc4n3CC2(C)C(=O)NCc2ccccc2)cc1OC (stereo not drawn),IC50,[1],"15.2 µM [falling, partial curve]"
CC(C)CCn1c(=O)c2ccccc2n2c(CCC(=O)N3CCN(Cc4ccccc4)CC3)nnc12,IC50,[1],"17.1 µM [falling, partial curve]"
O=C(COCC(=O)N1CCN(C(c2ccccc2)c2ccccc2)CC1)Nc1ccc(Cl)cc1C(=O)O,IC50,[1],"21.5 µM [falling, partial curve]"
CCS(=O)(=O)N1CCN(c2ccc(Nc3ncc(C(N)=O)c(NC4CC4)n3)cc2)CC1,IC50,[1],"12.1 µM [falling, partial curve]"
same,AC50,[2]; [5],"3.89 µM [falling, partial curve]"
same,AC50,[2]; measured here: PEO4 viability,"6.92 µM [falling, partial curve]"
CC(C)c1cc(-c2n[nH]c(=O)n2-c2ccc3c(ccn3C)c2)c(O)cc1O,IC50,[1],"27.1 µM [falling, partial curve]"
same,AC50,[2]; [5],"0.049 µM [falling, full curve]"
same,AC50,[2]; measured here: PEO4 viability,"0.049 µM [falling, full curve]"
same,AC50,[3]; [6],"0.0935 µM [falling, full curve]"
same,AC50,[3]; [7],"0.105 µM [falling, full curve]"
CC1(C)[C@@H](O)CC[C@]2(C)[C@H]3CC=C4[C@@H]5C[C@](C)(C(=O)O)CC[C@]5(C)CC[C@@]4(C)[C@]3(C)CC[C@@H]12,IC50,[1],"30.4 µM [falling, single point]"
same,IC50,[4],"24.1 µM [falling, partial curve]"
NS(=O)(=O)c1ccc(Nc2nc(OCC3CCCCC3)c3[nH]cnc3n2)cc1,IC50,[1],"7.64 µM [falling, partial curve]"
same,AC50,[2]; [5],"19.5 µM [falling, partial curve]"
same,AC50,[2]; measured here: PEO4 viability,"13.8 µM [falling, partial curve, poor fit]"
same,z-score,[3]; [8],0.251
same,z-score,[3]; [9],0.563
same,AC50,[3]; [6],"33.2 µM [falling, single point]"
same,z-score,[3]; [10],0.0223
same,AC50,[3]; [7],"20.9 µM [falling, partial curve, poor fit]"
O=C1NCc2c1c1c3ccccc3[nH]c1c1[nH]c3ccccc3c21,IC50,[1],"30.6 µM [falling, partial curve, poor fit]"
same,IC50,[4],"19.3 µM [falling, partial curve, poor fit]"
COc1ccc(CCN2C(=O)c3ccc(-c4ccco4)n3CC2(C)C(=O)NC2CCCC2)cc1OC (stereo not drawn),IC50,[1],"19.2 µM [falling, partial curve]"
CC(C)n1cc(-c2ccc(Oc3ccccc3)cc2)c2c(N)ncnc21,IC50,[1],"21.5 µM [falling, partial curve]"
same,IC50,[4],"15.2 µM [falling, partial curve]"
COc1ccc(CCc2nc3c(C)c(-c4c(C)noc4C)c(C)cc3n2CCN2CCOCC2)cc1,IC50,[1],"34.1 µM [falling, partial curve, poor fit]"
CC1(C)CC(=O)c2c(C(F)(F)F)nn(-c3ccc(C(N)=O)c(NC4CCC(OC(=O)CN)CC4)c3)c2C1 (stereo not drawn),IC50,[1],"21.5 µM [falling, partial curve]"
same,AC50,[2]; [5],"0.138 µM [falling, full curve]"
same,AC50,[2]; measured here: PEO4 viability,"0.123 µM [falling, full curve]"
same,z-score,[3]; [8],-1.02
same,z-score,[3]; [9],-0.399
same,AC50,[3]; [6],"0.148 µM [falling, full curve]"
same,z-score,[3]; [10],-1.12
same,AC50,[3]; [7],"0.332 µM [falling, full curve]"
CC(C)n1nc(Cc2cccc3ccccc23)c2c(N)ncnc21,IC50,[1],"24.1 µM [falling, partial curve, poor fit]"
same,IC50,[4],"19.2 µM [falling, partial curve]"
Cc1coc2c1C(=O)C(=O)c1c-2ccc2c1CCCC2(C)C,IC50,[1],"12.1 µM [falling, partial curve]"
same,IC50,[4],"19.2 µM [falling, partial curve]"
same,z-score,[3]; [8],0.293
same,z-score,[3]; [9],0.175
same,AC50,[3]; [6],"4.69 µM [falling, full curve]"
same,z-score,[3]; [10],0.385
Cc1cnc(Nc2ccc(CN3CCOCC3)cc2)nc1Nc1cccc(S(=O)(=O)NC(C)(C)C)c1,IC50,[1],"24.1 µM [falling, partial curve]"
same,AC50,[2]; [5],"3.89 µM [falling, full curve]"
same,AC50,[2]; measured here: PEO4 viability,"6.92 µM [falling, partial curve]"
same,AC50,[3]; [6],"5.26 µM [falling, full curve]"
same,AC50,[3]; [7],"13.2 µM [falling, partial curve]"
O=C1NC(=O)C(c2cnc3ccccn23)=C1c1cn2c3c(cc(F)cc13)CN(C(=O)N1CCCCC1)CC2,IC50,[1],"21.5 µM [falling, partial curve]"
same,AC50,[2]; [5],"0.0776 µM [falling, full curve]"
same,AC50,[2]; measured here: PEO4 viability,"0.049 µM [falling, full curve]"
O=C(NCc1cccc(Cl)c1)c1sc(=S)n2c1[nH]c(=O)c1cc3c(cc12)OCO3,IC50,[1],"24.1 µM [falling, partial curve]"
same,IC50,[4],"27.1 µM [falling, single point]"
Cn1cc2c3c(cccc31)CN(C(=O)c1ccccc1F)CC2,IC50,[1],"17.1 µM [falling, partial curve]"
CNS(=O)(=O)CC1CCC(N(C)c2ncnc3[nH]ccc23)CC1 (stereo not drawn),IC50,[1],"19.2 µM [falling, partial curve]"
same,IC50,[4],"12.1 µM [falling, partial curve]"
CCOC(=O)[C@@H](N)Cc1ccc(-c2cc(O[C@H](c3ccc(Cl)cc3-n3ccc(C)n3)C(F)(F)F)nc(N)n2)cc1,IC50,[1],"13.6 µM [falling, partial curve]"
same,AC50,[2]; [5],"24.5 µM [falling, single point]"
same,AC50,[2]; measured here: PEO4 viability,"24.5 µM [falling, single point]"
same,z-score,[3]; [8],0.693
same,z-score,[3]; [9],-0.179
same,AC50,[3]; [6],"33.2 µM [falling, single point]"
same,z-score,[3]; [10],0.428
same,AC50,[3]; [7],"29.6 µM [falling, single point]"
Cc1cc(Nc2nc(N[C@@H](C)c3ccc(F)cc3)c(C#N)cc2F)n[nH]1,IC50,[1],"21.5 µM [falling, partial curve]"
same,AC50,[2]; [5],"0.977 µM [falling, full curve]"
same,AC50,[2]; measured here: PEO4 viability,"0.871 µM [falling, full curve]"
same,z-score,[3]; [8],-0.345
same,z-score,[3]; [9],-0.613
same,AC50,[3]; [6],"5.9 µM [falling, partial curve]"
same,z-score,[3]; [10],0.193
same,AC50,[3]; [7],"20.9 µM [falling, partial curve]"
CC(C)Cn1c(=O)c2ccccc2n2c(CCC(=O)N3CCN(c4ccccc4)CC3)nnc12,IC50,[1],"21.5 µM [falling, partial curve]"
CCc1ccc(NS(=O)(=O)c2ccc3c(c2)n(C)c(=O)n3C)cc1,IC50,[1],"19.2 µM [falling, partial curve]"
CN(C)C/C=C/C(=O)Nc1cccc(C(=O)Nc2cccc(Nc3ncc(Cl)c(-c4c[nH]c5ccccc45)n3)c2)c1,IC50,[1],"4.82 µM [falling, full curve]"
same,AC50,[2]; [5],"0.123 µM [falling, full curve]"
same,AC50,[2]; measured here: PEO4 viability,"0.123 µM [falling, full curve]"
NC(=O)c1ccccc1Nc1ccnc(Nc2cccc(O)c2)n1,IC50,[1],"21.5 µM [falling, partial curve]"
same,AC50,[2]; [5],"6.16 µM [falling, partial curve]"
same,AC50,[2]; measured here: PEO4 viability,"0.977 µM [falling, partial curve]"
c1ccc(CNc2cc(-c3cc(N4CCCCC4)ncn3)c3cc[nH]c3n2)nc1,IC50,[1],"27.1 µM [falling, partial curve, poor fit]"
same,IC50,[4],"24.1 µM [falling, single point]"
Cc1ccc([N+](=O)[O-])cc1S(=O)(=O)N(C)/N=C/c1cnc2ccc(Br)cn12,IC50,[1],"19.2 µM [falling, partial curve]"
same,AC50,[2]; [5],"0.138 µM [falling, full curve]"
same,AC50,[2]; measured here: PEO4 viability,"0.0871 µM [falling, full curve]"
CCn1nnc2c(N3CCOCC3)nc(-c3ccc(NC(=O)Nc4ccc(C(=O)N5CCN(C)CC5)cc4)cc3)nc21,IC50,[1],"17.1 µM [falling, partial curve]"
same,AC50,[2]; [5],"0.0871 µM [falling, full curve]"
same,AC50,[2]; measured here: PEO4 viability,"0.0871 µM [falling, full curve]"
same,AC50,[3]; [6],"0.118 µM [falling, full curve]"
same,AC50,[3]; [7],"0.209 µM [falling, full curve]"
Nc1ncnc2c1c(-c1cnc3[nH]ccc3c1)nn2C1CCCC1,IC50,[1],"21.5 µM [falling, partial curve]"
same,IC50,[4],"21.5 µM [falling, partial curve]"
same,AC50,[2]; [5],"0.692 µM [falling, full curve]"
same,AC50,[2]; measured here: PEO4 viability,"1.55 µM [falling, full curve]"
same,AC50,[3]; [6],"5.26 µM [falling, partial curve]"
same,AC50,[3]; [7],"3.32 µM [falling, partial curve]"
